Where “and” joins values, the source holds several entries; their conditions need not be identical. Equal values may be shown once. In all, about 13,000 compounds were measured (“IFI”: median about 4, highest 2% from about 17 on). The list shows a part of the results.
Assay: GSK_TCMDC: Inhibition Frequency Index (IFI). The number of non-kinase HTS assays where a compound showed > 50 % inhibition, expressed as a percentage of the number of such assays in which the compound was tested (-0 is zero)
Type: functional

Row | Structure (SMILES) | IFI
1 | COc1ccc2nccc([C@@H](O)CN3CCC(NC(=O)/C=C/c4c[nH]c5c(C)cccc45)CC3)c2c1 | 0.69%
2 | CC[C@H](C)CNC(=O)c1ccc(-c2cccc(CN3CCC(N4CCCC4)CC3)c2)nc1 | -0%
3 | CCN1CCN(CCCNc2c3ccccc3nc3ccccc23)CC1 | 3.03%
4 | O=[N+]([O-])c1nc(Br)n(Cc2ccc(Cl)cc2)n1 | 5.26%
5 | N=C(N)NN=CC(=O)Nc1cccc(C(F)(F)F)c1 | -0%
6 | COc1ccc2nccc([C@@H](O)CN3CCC(NC(=O)c4cc5cccnc5[nH]4)CC3)c2c1 | 1.4%
7 | CC(C)(C)[C@@H](Nc1ccc(C#N)c2ccccc12)C(=O)NC1(Cc2ccc(O)c(Br)c2)CCCC1 | 0%
8 | O=C(Nc1cccc(Oc2ccccc2)c1)N[C@H]1CCN(Cc2ccc(OCCCN3CCCCC3)cc2)C1 | 9.22%
9 | CC(C)CNCc1cccc(-c2ccc(CN(CCCN3CCN(C)CC3)C(=O)CCC3CCCC3)cc2)c1 | 7.48%
10 | COc1ccc(NC(=O)/C=C/c2ccccc2Cl)cc1OCCN1CCC(O)(c2ccc(Cl)c(C(F)(F)F)c2)CC1 | 5.63%
11 | COc1ccc(OCCCN2CCN(CC(c3ccc(F)cc3)N3CCN(C(C)C)CC3)CC2)c2ccccc12 (configuration not stated) | 7.84%
12 | Nc1c2ccccc2nc2ccc(-c3ccccc3)cc12 | 12.8%
13 | N#Cc1ccc(Cn2ccc3c4c(N)nc(N)nc4ccc32)cc1 | 5%
14 | CN(C)CCCOc1ccc(-c2csc(NC(=N)NCc3ccccc3)n2)cc1 | 8.45%
15 | Cc1cc(=NN=Cc2ccccc2F)c2cc(F)ccc2[nH]1 | -0%
16 | CCN(CC)c1ccc2nc(N)nc(N)c2c1 | 7.26%
17 | O=C(Nc1cccnc1)c1cc(-c2cc(Cl)ccc2O)n[nH]1 | 1.45%
18 | COc1c(C(=O)NC2CCN(Cc3ccccc3)C2)cnc2ccccc12 (configuration not stated) | 0.75%
19 | CS(=O)(=O)Nc1ccc2[nH]cc(C3CCN(CCCCCNC(=O)/C=C/c4ccc(Cl)c(Cl)c4)CC3)c2c1 | 2.96%
20 | Cc1cccn2c(=O)c3cc(C(=O)NCCc4ccccc4)c(=N)n(CCCOC(C)C)c3nc12 | 4.3%
21 | CN(Cc1cccc(C#N)c1)C1CCN(c2cc(NC(=O)c3cccc(F)c3)ccn2)CC1 | -0%
22 | CCc1ccc(CN2CCC(C(=O)Nc3ccc(-c4nc5ccccc5[nH]4)cc3)CC2)o1 | 4.55%
23 | C=CCN1C(=O)CN(S(=O)(=O)c2ccc(-n3nc(C)cc3C)cc2)C1=S | 0.71%

Row | Structure (SMILES) | IFI
24 | COc1ccc(CN(C)CCCOc2ccc(NC(=O)c3cccc4c(=O)c5cccc(C)c5[nH]c34)cc2)cc1OC | 3.15%
25 | COc1cc(Cc2cnc(N)nc2N)cc(OCCCC(=O)O)c1OC | 0%
26 | CC(=O)Nc1ccc(CN2CCN(C(c3ccc(F)cc3)c3ccc(F)cc3)CC2)cc1 | -0%
27 | O=C(NC1CCN(Cc2ccccc2)CC1)c1csc2nc(-c3ccc(Cl)cc3)cn12 | 4.85%
28 | CC(C)N1CCC(NC(=O)N2CCCN(c3ncnc4cc(-c5ccccc5)sc34)CC2)CC1 | 1.96%
29 | CCCCOc1cc(C)nc2ccc(NC(=O)COCC(=O)Nc3ccc4nc(C)cc(OCCCC)c4c3)cc12 | 5.84%
30 | COc1ccc(C(C(=O)NC2CCN(C[C@H](O)c3ccnc4ccc(OC)cc34)CC2)N2CCN(c3ccc([N+](=O)[O-])cc3)CC2)cc1 (some centres not stated) | 0.69%
31 | COc1ccc(NC(=O)Nc2cc(C)nc3ccccc23)cc1Cl | 5.56%
32 | CCCOc1cc(OCCC)cc(-c2ccc(C(=O)Nc3ccc4ccc(C)nc4c3)c(=O)[nH]2)c1 | 0%
33 | CCCCN1C(=O)C2CC(=O)CC(C3CCCCC3)C2C1=O (configuration not stated) | 0%
34 | Cc1ccc(C(=O)Nc2ccc(C)c(OC3CCN(CCC(C)C)C3)c2)cc1 (configuration not stated) | 1.64%
35 | O=C(Nc1cccc([N+](=O)[O-])c1)Nc1cccc(C(F)(F)F)c1 | 12.4%
36 | OC(CNc1ccnc(Nc2cccc(OCCCN3CCOCC3)c2)n1)c1ccccc1 (configuration not stated) | 10.2%
37 | COc1ccc2ncc(F)c(CCN3CCC(NCc4cc(Br)c5c(c4)OCCO5)CC3)c2n1 | 8.49%
38 | COc1ccc2nc(-c3cccc(C)n3)nc(Nc3ccncc3)c2c1 | 1.53%
39 | Nc1ccc2c(N)c3ccccc3nc2c1 | 2.96%
40 | Cc1ccc2nc(-c3ccc(C(=O)NC4CCN(Cc5ccccc5)CC4)s3)[nH]c2c1 | 2.29%
41 | CC1CCCC(NCc2c(O)ccc3ccccc23)C1 (configuration not stated) | 1.52%
42 | COc1ccc(Cc2cnc3nc(N)nc(N)c3c2C)cc1 | 2.9%
43 | COc1ccc2ncc(F)c(C(O)CN3CCC(NCc4ccc5c(n4)NC(=O)CO5)CC3)c2c1 (configuration not stated) | 0.88% and 2.65%
44 | Cc1cc(N2CCCC2)nc(Nc2ccc(NC(=O)Cc3ccccc3)cc2)n1 | 15.4%
45 | COC(=O)C(C)(C)Cc1c(SC(C)(C)C)c2cc(C(C)C)ccc2n1Cc1ccc(Cl)cc1 | -0%
46 | Cc1nc(-c2cccc(Nc3ccnc4cc(-c5nccs5)ccc34)c2)no1 | 10.7%

Row | Structure (SMILES) | IFI
47 | CS(=O)(=O)c1ccc(CNCc2ccc(-c3cccc(-c4nc5cc(F)ccc5[nH]4)c3)cc2)cc1 | 6.6%
48 | c1ccc2c(CNCCCCCCNCc3c(OCC4CC4)ccc4ccccc34)c(OCC3CC3)ccc2c1 | 18.7%
49 | CCOC(=O)c1c(C)n(-c2ccccc2)c2ccc(OC(=O)c3ccc(S(=O)(=O)N(CC)CC)cc3)cc12 | 2.94%
50 | O=C(NCCCCCN1CCC(c2c[nH]c3ccccc23)CC1)Nc1cccc(Br)c1 | 4.23%
51 | O=c1ccc(CNc2nc(NCCc3ccccc3)nc3ccc(Cl)cc23)c[nH]1 | 0%
52 | CC[C@H](C)CNC(=O)c1ccnc(-c2ccc(CNCCCc3ccccc3)cc2)c1 | 8.06%
53 | Fc1ccc2c(NN=Cc3ccccc3F)ccnc2c1 | 2.17%
54 | O=c1c2ccc(F)cc2sn1-c1ccc(Cl)cc1 | 23.9%
55 | COc1ccccc1C1CCN(C2CCC(NC(=O)/C=C/c3ccc(OC(F)(F)F)cc3)CC2)CC1 (configuration not stated) | 11.7%
56 | CN(Cc1ccc(-c2ccc(C(F)(F)F)cc2)cc1)C(=O)Cn1c(CCc2cccc(F)c2F)nc(=O)c2ccc(N3CCN(CCN4CCCCC4)CC3)nc21 | 15.8%
57 | COc1ccc2nccc([C@@H](O)CN3CCC(NC(=O)c4ccc(Cl)c(OC)c4)CC3)c2c1 | 1.48%
58 | N#Cc1ccc2c(c1)CN(C1CCC(NC(=O)c3cc(-c4ccc(Cl)cc4)cs3)CC1)CCC2 (configuration not stated) | 8.2%
59 | COC(=O)Cc1ccc(N)c2ccccc12 | 3.82%
60 | COc1ccccc1CCNc1ncnc2c1[nH]c1ccc(F)cc12 | 20.5%
61 | O=C1OC(c2ccccc2)(c2ccccc2)CN1C1CCN(Cc2ccc(O)c(Cl)c2)C1 (configuration not stated) | 9.7%
62 | O=C(NCCc1ccccc1)N(Cc1ccccc1-c1cccc(CNCc2ccc3c(c2)OCO3)c1)C1CCN(Cc2ccccc2)CC1 | 8.63%
63 | COc1cc(NC2=NS(=O)(=O)c3cc(Cl)ccc3N2C)cc(OC)c1OC | -0%
64 | COc1ccc(Cn2ccc3c4c(N)nc(N)nc4ccc32)cc1 | 12.3%
65 | CCOc1ccc(C(=O)N2CCOC(CCN3CCC4(CCc5ccccc54)CC3)(c3ccc(Cl)c(Cl)c3)C2)cc1 (configuration not stated) | 6.9%
66 | CC(=O)N1c2ccccc2C(C)=CC1(C)C | 0.71%
67 | CC(=O)NCCNCc1cccc(C(=O)NCc2cccc(C(F)(F)F)c2)c1 | -0%
68 | CNCCCn1c(N(C)C)nc2cc(-n3cnc4cc(-c5ccc(Cl)cc5)sc4c3=O)ccc21 | 8.89%
69 | CCNc1cc(C(=O)N[C@@H](Cc2ccccc2)[C@H](O)CNC2CCC(C(C)(C)C)CC2)cc(N2CCCC2=O)c1 (some centres not stated) | 2.92%

Row | Structure (SMILES) | IFI
70 | CC=Cc1cc(Cc2c[nH]c(=N)[nH]c2=N)cc(CCC)c1OC | 2.27%
71 | CCc1cc2c(cc1CC)CC(NC[C@@H](O)c1ccc(O)c3[nH]c(=O)ccc13)C2 | 6.45%
72 | c1ccc(-c2nc(NCCCn3ccnc3)cc(-c3ccncc3)n2)cc1 | 1.06%
73 | Oc1ccc(Nc2ccnc3cc(Cl)ccc23)cc1 | 3.57%
74 | CC(C)(C)OC(=O)NCc1ccc(Nc2nnc(-c3ccc(OCC(=O)NCc4ccc(C(C)(C)C)cc4)c([N+](=O)[O-])c3)o2)cc1 | 3.1%
75 | Fc1cc(CN2CCCC2)ccc1OCCCN1CCN(c2cccc(Cl)c2Cl)CC1 | 10.3%
76 | CCCN1CCN(CCCCNc2c3ccccc3nc3ccccc23)CC1 | 2.94%
77 | CCc1ccccc1N1CCN(CCCC(=O)c2ccc(NC(=O)c3ccc(Cl)cc3)cc2)CC1 | 0.89%
78 | CCCCN1CCCN(Cc2cccc(NC(=O)c3ccc(-c4ccccc4)cc3)c2)CC1 | 4.76%
79 | CN(Cc1cc(C(F)(F)F)cc(C(F)(F)F)c1)C(=O)C(Cc1ccc(F)cc1)C1CCCNC1 (configuration not stated) | 5.41%
80 | CC1CN(Cc2ccc(-c3cccc(-c4nc5cc(F)ccc5[nH]4)c3)cc2)CC(C)O1 (configuration not stated) | 4.29%
81 | CN(C)c1ccc(CN2CCCC(CNC(=O)c3ccc(-c4cccc(C(F)(F)F)c4)s3)C2)cc1 (configuration not stated) | 10.7%
82 | COc1ccc2nccc(N3CCC(SCCNCc4cc5c(cn4)OCCO5)C3)c2n1 (configuration not stated) | 6.34%
83 | O=C(/C=C/c1ccc(Cl)c(Cl)c1)NCCCCCN1CCC(NC(=O)Nc2ccc(Cl)c(C(F)(F)F)c2)CC1 | 13.3%
84 | Nc1nc(Nc2cccc(Cl)c2)ncc1C(=O)NCc1ccncc1 | 3.33%
85 | CN(C)CCOc1ccc2nc(-c3cccc(OCc4ccccc4)c3)[nH]c2c1C#N | 9.09%
86 | NS(=O)(=O)c1cccc(Nc2nc(N[C@@H]3CCNC3)nc3cc[nH]c(=O)c23)c1 | 18.2%
87 | COc1c(C2CCN(CCCCNC(=O)c3ccc(-c4ccc(Cl)cc4)c(OCC(N)=O)c3)CC2)ccc2c1CCCC2 | 12.9%
88 | Cc1ccc(-n2c(=O)c3c(n4c(SC(C)C)nnc24)-c2ccccc2CC32CCCCC2)cc1 | -0%
89 | Cc1cc(C(=O)Nc2ccc3c(ccn3C3CCCN(Cc4ccc(C(F)(F)F)cc4F)CC3)c2)no1 (configuration not stated) | 3.13%
90 | Cc1cc(N[C@@H](Cc2ccccc2)C(=O)NCc2cccs2)nc(NCCOc2ccccc2)n1 | 9.09%
91 | CC(=O)N(C)c1cccc(C(=O)Nc2ccc(-c3cccc(-c4nc5cccc(C)c5[nH]4)c3)cc2)c1 | 7.76%
92 | Cc1cccc2nc(-c3ccc(-c4cccc(NC(=O)Nc5ccsc5)c4)s3)[nH]c12 | 4.04%

— ChEMBL document CHEMBL1157539, “Thousands of chemical starting points for antimalarial lead identification” (Nature, 2010)
